Reference: a compilation of properties of binary mixtures (doi:10.1007/s10953-021-01067-6)
Some of these densities may be calculated back from excess volumes.

Assay: xn = mol fraction of the nth substance listed
Conditions: 101.3 kPa

CCCCCC[NH2+]CCN.O=S(=O)([N-]S(=O)(=O)C(F)(F)F)C(F)(F)F + O
mass density [kg/m3]
Conditions | x1 = 0.401 | x1 = 0.4387 | x1 = 0.5021 | x1 = 0.5762 | x1 = 0.6827 | x1 = 0.8153 | x1 = 0.8939
303.15 K | 1354 | 1359 | 1355 | 1357 | 1359 | 1365 | 1375
308.15 K | 1352 | 1356 | – | 1355 | 1354 | 1360 | 1371
313.15 K | 1347 | 1349 | 1347 | 1349 | 1350 | 1354 | 1366
318.15 K | 1340 | 1347 | 1340 | – | 1347 | 1351 | 1362
323.15 K | – | 1343 | 1341 | 1338 | 1343 | 1347 | 1358
328.15 K | 1330.5 | 1337 | – | 1335 | – | 1342 | 1353
333.15 K | 1324.6 | 1330 | 1332 | 1332 | 1331 | 1335 | 1347
338.15 K | 1320.4 | 1325.7 | – | 1327.1 | 1325.5 | 1329.8 | 1341
343.15 K | 1317.5 | 1319.9 | 1325.3 | 1321.1 | – | – | 1338
348.15 K | – | 1314.2 | 1321.2 | – | 1318.7 | 1321.1 | 1333
353.15 K | 1306.2 | 1309.8 | 1316.3 | – | 1314 | 1317.4 | 1330
